These results are taken from article PMC12820563.

The other results are listed elsewhere or left out. The list includes weakly bound sequences.

For this assay, the target named is T1, MBP-FoxP3dN (UniProt Q99JB6).
T1 sequence: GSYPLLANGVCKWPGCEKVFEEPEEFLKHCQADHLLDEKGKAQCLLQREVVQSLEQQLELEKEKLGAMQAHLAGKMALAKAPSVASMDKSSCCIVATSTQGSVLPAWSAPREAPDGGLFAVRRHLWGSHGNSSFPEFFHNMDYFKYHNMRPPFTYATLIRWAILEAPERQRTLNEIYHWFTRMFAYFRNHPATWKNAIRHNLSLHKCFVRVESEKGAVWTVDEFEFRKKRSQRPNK
The experiment in a line: PD-seq (MBP pull-down with sequencing). The conditions noted are these: 20 mM Tris-HCl pH 7.5, 100 mM NaCl, 1.5 mM MgCl2, 0.4 uM protein, 0.1 uM dsDNA library, 30 min, room temperature, amylose pull-down; high values mean tight binding; double strand, one strand shown.
For “GATGATTGTTCTCCCAGCTGATGAATTCGTTGCCTCGAGTAAACAAATTTTCCTAATCTTTCTGTTCAAGCGCCATCTAC”, the binding signal (RPM ratio (pull-down/input)) was determined as 2.64.
For “GATGATTGTTCTCCCAGCTGATGAATTTGCAGGTTCGAGTAAACAAATTTTCCTAATCTTTCTGTTCAAGCGCCATCTAC”, the binding signal (RPM ratio (pull-down/input)) amounted to 0.591.
On to “GATGATTGTTCTCCCAGCTGATGAATTGATTCTCTCGAGTAAACAAATTTTCCTAATCTTTCTGTTCAAGCGCCATCTAC”, for which the binding signal (RPM ratio (pull-down/input)) worked out at 0.395.
Then “GATGATTGTTCTCCCAGCTGATGAATTTTACGTTTCGAGTAAACAAATTTTCCTAATCTTTCTGTTCAAGCGCCATCTAC”, with 0.363; and “GATGATTGTTCTCCCAGCTGATGAATTCAATCTCTCGAGTAAACAAATTTTCCTAATCTTTCTGTTCAAGCGCCATCTAC”, with 0.362; and “GATGATTGTTCTCCCAGCTGATGAATTTTGGCTCTCGAGTAAACAAATTTTCCTAATCTTTCTGTTCAAGCGCCATCTAC”, with 0.475.
The result for “GATGATTGTTCTCCCAGCTGATGAATTGGGAAGGTCGAGTAAACAAATTTTCCTAATCTTTCTGTTCAAGCGCCATCTAC” reads 0.234; that for “GATGATTGTTCTCCCAGCTGATGAATTTCTCCTCTCGAGTAAACAAATTTTCCTAATCTTTCTGTTCAAGCGCCATCTAC”, 0.237; that for “GATGATTGTTCTCCCAGCTGATGAATTACATAGTTCGAGTAAACAAATTTTCCTAATCTTTCTGTTCAAGCGCCATCTAC”, 0.624.
In the case of “GATGATTGTTCTCCCAGCTGATGAATTCTCCTTATCGAGTAAACAAATTTTCCTAATCTTTCTGTTCAAGCGCCATCTAC”, the binding signal (RPM ratio (pull-down/input)) was 0.246.
Then “GATGATTGTTCTCCCAGCTGATGAATTTTGGGGTTCGAGTAAACAAATTTTCCTAATCTTTCTGTTCAAGCGCCATCTAC”, with 0.546; and “GATGATTGTTCTCCCAGCTGATGAATTGATTCACTCGAGTAAACAAATTTTCCTAATCTTTCTGTTCAAGCGCCATCTAC”, with 0.463; and “GATGATTGTTCTCCCAGCTGATGAATTGGTACGATCGAGTAAACAAATTTTCCTAATCTTTCTGTTCAAGCGCCATCTAC”, with 0.349.
The result for “GATGATTGTTCTCCCAGCTGATGAATTCAGAGCGTCGAGTAAACAAATTTTCCTAATCTTTCTGTTCAAGCGCCATCTAC” reads 0.387; that for “GATGATTGTTCTCCCAGCTGATGAATTAGACTTATCGAGTAAACAAATTTTCCTAATCTTTCTGTTCAAGCGCCATCTAC”, 0.621.
In the case of “GATGATTGTTCTCCCAGCTGATGAATTATAACTTTCGAGTAAACAAATTTTCCTAATCTTTCTGTTCAAGCGCCATCTAC”, the binding signal (RPM ratio (pull-down/input)) is 0.542.
Then “GATGATTGTTCTCCCAGCTGATGAATTATCTCGCTCGAGTAAACAAATTTTCCTAATCTTTCTGTTCAAGCGCCATCTAC”, with 0.31; and “GATGATTGTTCTCCCAGCTGATGAATTTCATACCTCGAGTAAACAAATTTTCCTAATCTTTCTGTTCAAGCGCCATCTAC”, with 0.402; and “GATGATTGTTCTCCCAGCTGATGAATTAAACACGTCGAGTAAACAAATTTTCCTAATCTTTCTGTTCAAGCGCCATCTAC”, with 0.54.
With “GATGATTGTTCTCCCAGCTGATGAATTGAGCTTGTCGAGTAAACAAATTTTCCTAATCTTTCTGTTCAAGCGCCATCTAC”, the binding signal (RPM ratio (pull-down/input)) came out at 2.61.
Then “GATGATTGTTCTCCCAGCTGATGAATTTGCTCGATCGAGTAAACAAATTTTCCTAATCTTTCTGTTCAAGCGCCATCTAC”, with 0.337.
Then “GATGATTGTTCTCCCAGCTGATGAATTACTTTGCTCGAGTAAACAAATTTTCCTAATCTTTCTGTTCAAGCGCCATCTAC”, with 0.707; and “GATGATTGTTCTCCCAGCTGATGAATTTTAGCTATCGAGTAAACAAATTTTCCTAATCTTTCTGTTCAAGCGCCATCTAC”, with 0.721; and “GATGATTGTTCTCCCAGCTGATGAATTCGCACCTTCGAGTAAACAAATTTTCCTAATCTTTCTGTTCAAGCGCCATCTAC”, with 0.466.
The result for “GATGATTGTTCTCCCAGCTGATGAATTGGCATCGTCGAGTAAACAAATTTTCCTAATCTTTCTGTTCAAGCGCCATCTAC” reads 1.77.
On to “GATGATTGTTCTCCCAGCTGATGAATTAAGCGGTTCGAGTAAACAAATTTTCCTAATCTTTCTGTTCAAGCGCCATCTAC”, for which the binding signal (RPM ratio (pull-down/input)) was 0.596.
The result for “GATGATTGTTCTCCCAGCTGATGAATTCTCTATATCGAGTAAACAAATTTTCCTAATCTTTCTGTTCAAGCGCCATCTAC” reads 0.286; that for “GATGATTGTTCTCCCAGCTGATGAATTGAATGTCTCGAGTAAACAAATTTTCCTAATCTTTCTGTTCAAGCGCCATCTAC”, 0.895; that for “GATGATTGTTCTCCCAGCTGATGAATTTCTTGGCTCGAGTAAACAAATTTTCCTAATCTTTCTGTTCAAGCGCCATCTAC”, 0.329.
The result for “GATGATTGTTCTCCCAGCTGATGAATTTCCTCCGTCGAGTAAACAAATTTTCCTAATCTTTCTGTTCAAGCGCCATCTAC” reads 0.214; that for “GATGATTGTTCTCCCAGCTGATGAATTACCATTGTCGAGTAAACAAATTTTCCTAATCTTTCTGTTCAAGCGCCATCTAC”, 0.538.
Then “GATGATTGTTCTCCCAGCTGATGAATTATACACATCGAGTAAACAAATTTTCCTAATCTTTCTGTTCAAGCGCCATCTAC”, with 1.12; and “GATGATTGTTCTCCCAGCTGATGAATTCGGACATTCGAGTAAACAAATTTTCCTAATCTTTCTGTTCAAGCGCCATCTAC”, with 0.826; and “GATGATTGTTCTCCCAGCTGATGAATTAAGACTCTCGAGTAAACAAATTTTCCTAATCTTTCTGTTCAAGCGCCATCTAC”, with 1.63.
Consider “GATGATTGTTCTCCCAGCTGATGAATTTCGAAGCTCGAGTAAACAAATTTTCCTAATCTTTCTGTTCAAGCGCCATCTAC”, for which the binding signal (RPM ratio (pull-down/input)) was determined as 0.272.
Then “GATGATTGTTCTCCCAGCTGATGAATTCGGATTTTCGAGTAAACAAATTTTCCTAATCTTTCTGTTCAAGCGCCATCTAC”, with 0.506; and “GATGATTGTTCTCCCAGCTGATGAATTGTTCGTTTCGAGTAAACAAATTTTCCTAATCTTTCTGTTCAAGCGCCATCTAC”, with 0.601; and “GATGATTGTTCTCCCAGCTGATGAATTTCCAGTTTCGAGTAAACAAATTTTCCTAATCTTTCTGTTCAAGCGCCATCTAC”, with 0.259.
Then “GATGATTGTTCTCCCAGCTGATGAATTCTTAGGATCGAGTAAACAAATTTTCCTAATCTTTCTGTTCAAGCGCCATCTAC”, with 0.184; and “GATGATTGTTCTCCCAGCTGATGAATTTATCATGTCGAGTAAACAAATTTTCCTAATCTTTCTGTTCAAGCGCCATCTAC”, with 2.48; and “GATGATTGTTCTCCCAGCTGATGAATTATTCCGCTCGAGTAAACAAATTTTCCTAATCTTTCTGTTCAAGCGCCATCTAC”, with 0.26.
Then “GATGATTGTTCTCCCAGCTGATGAATTTCCAAGTTCGAGTAAACAAATTTTCCTAATCTTTCTGTTCAAGCGCCATCTAC”, with 0.196; and “GATGATTGTTCTCCCAGCTGATGAATTTTATTCATCGAGTAAACAAATTTTCCTAATCTTTCTGTTCAAGCGCCATCTAC”, with 0.639; and “GATGATTGTTCTCCCAGCTGATGAATTGGTAGTCTCGAGTAAACAAATTTTCCTAATCTTTCTGTTCAAGCGCCATCTAC”, with 1.18.
With “GATGATTGTTCTCCCAGCTGATGAATTAGAGCCCTCGAGTAAACAAATTTTCCTAATCTTTCTGTTCAAGCGCCATCTAC”, the binding signal (RPM ratio (pull-down/input)) is 0.358.
Then “GATGATTGTTCTCCCAGCTGATGAATTCTTCCCTTCGAGTAAACAAATTTTCCTAATCTTTCTGTTCAAGCGCCATCTAC”, with 0.198; and “GATGATTGTTCTCCCAGCTGATGAATTATCGCCATCGAGTAAACAAATTTTCCTAATCTTTCTGTTCAAGCGCCATCTAC”, with 2.38; and “GATGATTGTTCTCCCAGCTGATGAATTTCAAGATTCGAGTAAACAAATTTTCCTAATCTTTCTGTTCAAGCGCCATCTAC”, with 0.21.
As to “GATGATTGTTCTCCCAGCTGATGAATTATTTGGTTCGAGTAAACAAATTTTCCTAATCTTTCTGTTCAAGCGCCATCTAC”, the binding signal (RPM ratio (pull-down/input)) came to 1.08.
Then “GATGATTGTTCTCCCAGCTGATGAATTGGGTCCTTCGAGTAAACAAATTTTCCTAATCTTTCTGTTCAAGCGCCATCTAC”, with 0.337; and “GATGATTGTTCTCCCAGCTGATGAATTCAGTGGATCGAGTAAACAAATTTTCCTAATCTTTCTGTTCAAGCGCCATCTAC”, with 0.52.
The result for “GATGATTGTTCTCCCAGCTGATGAATTGACAAGTTCGAGTAAACAAATTTTCCTAATCTTTCTGTTCAAGCGCCATCTAC” reads 0.38.
Then “GATGATTGTTCTCCCAGCTGATGAATTGAATTCGTCGAGTAAACAAATTTTCCTAATCTTTCTGTTCAAGCGCCATCTAC”, with 0.487; and “GATGATTGTTCTCCCAGCTGATGAATTTAGCCAGTCGAGTAAACAAATTTTCCTAATCTTTCTGTTCAAGCGCCATCTAC”, with 1.81.
In the case of “GATGATTGTTCTCCCAGCTGATGAATTAAATAGATCGAGTAAACAAATTTTCCTAATCTTTCTGTTCAAGCGCCATCTAC”, the binding signal (RPM ratio (pull-down/input)) turned out to be 0.331.
For “GATGATTGTTCTCCCAGCTGATGAATTAGTACTCTCGAGTAAACAAATTTTCCTAATCTTTCTGTTCAAGCGCCATCTAC”, the binding signal (RPM ratio (pull-down/input)) amounted to 0.792.
The result for “GATGATTGTTCTCCCAGCTGATGAATTAGACCAATCGAGTAAACAAATTTTCCTAATCTTTCTGTTCAAGCGCCATCTAC” reads 0.29; that for “GATGATTGTTCTCCCAGCTGATGAATTGTGACCATCGAGTAAACAAATTTTCCTAATCTTTCTGTTCAAGCGCCATCTAC”, 0.94; that for “GATGATTGTTCTCCCAGCTGATGAATTGTTCACTTCGAGTAAACAAATTTTCCTAATCTTTCTGTTCAAGCGCCATCTAC”, 0.429.
The result for “GATGATTGTTCTCCCAGCTGATGAATTGCCTGCATCGAGTAAACAAATTTTCCTAATCTTTCTGTTCAAGCGCCATCTAC” reads 1.55; that for “GATGATTGTTCTCCCAGCTGATGAATTCAGATAGTCGAGTAAACAAATTTTCCTAATCTTTCTGTTCAAGCGCCATCTAC”, 0.424.
As for “GATGATTGTTCTCCCAGCTGATGAATTGTTACCGTCGAGTAAACAAATTTTCCTAATCTTTCTGTTCAAGCGCCATCTAC”, the binding signal (RPM ratio (pull-down/input)) stood at 0.724.
The result for “GATGATTGTTCTCCCAGCTGATGAATTTGAGTTGTCGAGTAAACAAATTTTCCTAATCTTTCTGTTCAAGCGCCATCTAC” reads 1.46.
